# Laboratory results: the supplement of paper PMC12632987
# The full ranking holds about 4,500 sequences; the median of “median log2 fold change of GCK-ALFA target abundance (FLAG IP / Myc IP barcode read proportion)” is about 0.078, and the lowest 2% start at about -0.6. Some of the results follow.
# B1: GBRAP_80_6761 (protein)
# chain: AEAALAAALARLKALDPELGARVAEVLERAVALGVPLAVVTRTVEALVELYEVDPERARKIAEELIERLTEALERGDRDEAIAILVDAESDALVEVEELE
# B2: GBRAP_160_4459 (protein)
# chain: SELKEKLIKEVDETREEAKEMIKGETHEQRVVIVEGLFGSFLLELAENENVSDELEDEVAEIVDELVDTLRANPDLTEEEIKALIDEAAEKIKEAIEKHL
# B3: GBRAP_52_6049 (protein)
# chain: MREEIRRRVEEILELVKAGDEEGARALLREVFETLSDEELELFIEEFARAAREARPEDFDAVARAVELAVEEAEEAGKPEELADLFEARVYAALYEAEQR
# B4: GBRAP_166_4990 (protein)
# chain: SLEELKKELEEELERVLEEIREANDEEVIELLIEFGIKLEEARKEGLPLEYILELAVRAAVEAAKVTGKPNLAVGVIGEAAGLDEEELDILEKRVLERLA
# B5: GBRAP_95_7073 (protein)
# chain: EDDLLLLESLVEVLDTYLDLGDEEKAREAAREAAETLKKLGYPKLPESLSLEGRLLIVEEAAKTYDEETTRKITEAILKSVKDEEDKEKIRKRLEELLKK
# B6: GBRAP_80_6840 (protein)
# chain: NEEKFKAAAAALRAATPAEMQPFIDALEEAAKAGASKERITRALEAMLALVKADPEKAKALAEEGLKDLKEALATGDVDEINATIADIEGDALVELEELE
# B7: GBRAP_11_2843 (protein)
# chain: NLEALKELQEKAEEIAKELAKLIASGNPTQEELDALKKKVEELLKEVKKHASKSAQKLAEIALEEVNEAIANPEKQKEHLEHALAAVRVLAGELLLEIEE
# B8: GBRAP_9_7178 (protein)
# chain: EQAKKKAILKTAKEEFELALEVVPEEKKPEVKKLLEEVLAELEKLVADPNTTLEELLEALEKLVEKLIKELKKILDKETYNQVEAVLGTAILEAEEIVEE
# B9: GBRAP_52_6116 (protein)
# chain: MRERLRAFVEEQLALVRAGREEEARARIRELVASIDEEELRILADALAELAREAAPEDLDAVWRLAELIAEAMEEAGKPEELVDYLLSKTAAALYEREQA
# B10: GBRAP_128_3449 (protein)
# chain: SVEEAAEYARETMEKMKESDLETARELAKELAEWLLTLSDEELAAAVEEIERLAPELSAEKLDILADVFREALPRFTPEQANLVADAEVELLNEAEEKEE
# B11: GBRAP_160_4545 (protein)
# chain: SEKVEEAIEDIDEEAEFVKSLVGKISTDELINAVDVEVGSFIMELAELGLLTDELEEEIDEIRDETLATLKANPNASDEEKKALIDEMAEKIKEAIKKHA
# B12: GBRAP_125_3046 (protein)
# chain: SLEELVEALALIAKRLGLSEEEVEELAELARKHGVKGTLIALLLAEGYEELAELASKLTEEEVAEVLKELAEWLKKNPNATKEEVIKKLKELLEKALKKK
# B13: GBRAP_160_4240 (protein)
# chain: SSSIEEIKEEILEEMELMVESLLEVDPSQWPAIARAYAGDIVQIVIENPEASDEMEEAVAEKADALVARLVAAKDASPEEIRALAEEGAEEIIKTIEELS
# B14: GBRAP_160_4196 (protein)
# chain: SEKIEELIKEIKEIAEEAKEMIEGESYEERVVIVEGALGQIILLVSESPEVSDETEEKIAEIADEAIAYLRAHPDLTEEEIKKLIDETTEKIIEIIKEGA
# B15: GBRAP_39_5663 (protein)
# chain: EEEEENELLFSYYEALAVKYKIDEGITDEEAIEEGKKLLRELAEEHPEIKEDVEKLLKKVEEGDEDVGLAAYGIALEYKEGTPLEEIKEHIKSLLKYVDK
# B16: GBRAP_160_4449 (protein)
# chain: MKTKEELIKLVEETKKETIELIKGESHEERVVIVEGEFGSLLMEFASDERVSDEMEDKIAEVVDELVKTLKENPDLSLEEIEALIEEAAEKIKEIIEEEL
# B17: GBRAP_11_2902 (protein)
# chain: KLEKLKELAELLKKAAELLKELLKKGVDDEELLKKALEVAKKALELAKEVLDESDVELAEYAVELLEKAKKDPENAEQYVKEALAIVRVLEGQVLLEIEE
# B18: GBRAP_160_4829 (protein)
# chain: EESKEKLKKLIEEEAEEAKRLIVGQTAEERAAIVAVEFGRVILELSELEEVSDELEDKVAEIADEAVETILANPDLTEEEVRALIEEAAEKIKEIIEKEL
# B19: GBRAP_139_3725 (protein)
# chain: MKKEEAIKKAKELVKKYKDDLEKLAKELAKLISSVDSETALEIARAAAEELKDYSWEKWEELIELLSKELKELGIDEDDILAIEGEFEAVMAKHLIEKEA
# Target: GABARAP, O95166
# Sequence (O95166 whole entry, the tested form may be a part): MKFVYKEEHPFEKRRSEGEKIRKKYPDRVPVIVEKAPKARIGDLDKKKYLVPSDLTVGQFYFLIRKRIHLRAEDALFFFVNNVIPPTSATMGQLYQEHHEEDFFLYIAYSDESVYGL
# Assay: median log2 fold change of GCK-ALFA target abundance (FLAG IP / Myc IP barcode read proportion) (log2 ratio); each designed protein is fused to an ALFA-tag nanobody in HEK293 cells to bring the named protein to FLAG-tagged glucokinase (GCK); Myc marks an untargeted standard; higher = target protein stabilised (more abundant)
# Settings: target protein: 3xFLAG-MCP-GCK-ALFA reporter; HEK293 landing pad (RPLP)
# In short: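 Sequencing of reverse-transcribed, amplified circular RNA barcodes from anti-FLAG and anti-Myc immunoprecipitates provided the readout for an ALFA-nanobody-fused binder library recombined into HEK293 landing-pad cells. Those cells were induced with 2 μg mL^−1 doxycycline, transfected with a plasmid expressing a FLAG-tagged target and a Myc-tagged standard, and lysed after 48 h. Target abundance is the per-binder median log2 ratio of FLAG to Myc barcode read proportions. Only barcodes at a proportion of ≥10^−7 in both replicates and binders with ≥3 barcodes per replicate were kept, with a 10^−6 pseudocount added before the two replicates were pooled.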
row,Binder,median log2 fold change
1,B1,0.272
2,B2,-0.047
3,B3,0.12
4,B4,-0.01
5,B5,0.172
6,B6,0.124
7,B7,0.0664
8,B8,0.0939
9,B9,-0.0516
10,B10,-0.0934
11,B11,-0.0103
12,B12,-0.324
13,B13,-0.0253
14,B14,-0.144
15,B15,0.142
16,B16,0.395
17,B17,-0.234
18,B18,-0.0806
19,B19,-0.506
